Test results taken from the supplement of paper PMC4967469.

Tests used:
Assay in all cases: Viability of human cancer cell lines after 72 h of drug (GDSC screen)
AKT inhibitor VIII = compound: O=c1[nH]c2ccccc2n1C1CCN(Cc2ccc(-c3[nH]c4cc5ncnc5cc4nc3-c3ccccc3)cc2)CC1 [AKT inhibitor VIII]; settings: top dose inferred
Procedure: (§1)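 Human cancer cell lines in 384-well plates, medium with 10% serum, drug for 72 h over a 256-fold dose range (nine 2-fold or five 4-fold steps up to the top dose). Adherent lines were fixed and stained with the nucleic acid dye Syto60, suspension lines read with resazurin; signal relative to control wells, capped at 0 and 100%. One two-parameter sigmoid per drug and line, fitted in a mixed model over all curves with the slope shared within a line.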

AICAR = compound: NC(=O)c1ncn([C@@H]2O[C@H](CO)[C@@H](O)[C@H]2O)c1N [AICAR]; settings: top dose 2000 µM; top dose inferred
Procedure: as §1

GSK429286A = compound: CC1=C(C(=O)Nc2cc3cn[nH]c3cc2F)C(c2ccc(C(F)(F)F)cc2)CC(=O)N1 [GSK429286A]; settings: top dose inferred
Procedure: as §1

[1] = top dose 2.56 µM, screen: GDSC drug entry 171
[2] = top dose 10.24 µM, screen: GDSC drug entry 228

| Cell Line | AUC (AKT inhibitor VIII; [1]) | IC50 (AKT inhibitor VIII; [1]) [µM] | AUC (AKT inhibitor VIII; [2]) | IC50 (AKT inhibitor VIII; [2]) [µM] | AUC (AICAR) | IC50 (AICAR) [µM] | AUC (GSK429286A) | IC50 (GSK429286A) [µM] |
| --- | --- | --- | --- | --- | --- | --- | --- | --- |
| 8-MG-BA (glioma, adherent) | 0.938 | > 2.56 | 0.92 | > 10.2 | 0.899 | > 2000 |  |  |
| 22RV1 (prostate, adherent) | 0.876 | > 2.56 | 0.706 | 2.83 | 0.9 | > 2000 |  |  |
| 42-MG-BA (glioma, adherent) | 0.939 | > 2.56 | 0.923 | > 10.2 | 0.867 | > 2000 |  |  |
| 201T (lung adenocarcinoma, adherent) | 0.822 | 2.03 | 0.686 | 2.44 | 0.972 | > 2000 |  |  |
| 451Lu (melanoma, adherent) | 0.965 | > 2.56 | 0.95 | > 10.2 | 0.926 | > 2000 |  |  |
| 639-V (bladder, adherent) | 0.954 | > 2.56 | 0.983 | > 10.2 | 0.897 | 1830 |  |  |
| 647-V (bladder, adherent) | 0.922 | > 2.56 | 0.921 | > 10.2 | 0.838 | 1360 |  |  |
| 5637 (bladder, adherent) | 0.989 | > 2.56 | 0.895 | > 10.2 | 0.927 | > 2000 |  |  |
| 8305C (thyroid, adherent) | 0.963 | > 2.56 | 0.959 | > 10.2 | 0.926 | > 2000 |  |  |
| 8505C (thyroid, adherent) | 0.962 | > 2.56 | 0.942 | > 10.2 | 0.887 | > 2000 |  |  |
| 23132-87 (stomach, adherent) | 0.704 | 0.616 | 0.721 | 2.77 | 0.939 | > 2000 |  |  |
| A4-Fuk (B-cell lymphoma, suspension) | 0.837 | 1.82 | 0.767 | 3.95 | 0.623 | 276 |  |  |
| A253 (head and neck, adherent) | 0.922 | > 2.56 | 0.937 | > 10.2 | 0.903 | > 2000 |  |  |
| A375 (melanoma, adherent) | 0.973 | > 2.56 | 0.977 | > 10.2 | 0.888 | 1550 |  |  |
| A427 (non-small cell lung carcinoma, adherent) | 0.895 | > 2.56 | 0.892 | > 10.2 | 0.941 | > 2000 |  |  |
| A431 (skin, adherent) | 0.977 | > 2.56 | 0.809 | 5.07 | 0.859 | 1550 |  |  |
| A549 (lung adenocarcinoma, adherent) |  |  |  |  | 0.898 | > 2000 |  |  |
| A704 (kidney, adherent) | 0.973 | > 2.56 | 0.988 | > 10.2 | 0.903 | > 2000 |  |  |
| A2058 (melanoma, adherent) | 0.983 | > 2.56 | 0.932 | > 10.2 | 0.893 | 1930 |  |  |
| A2780 (ovary, semi-adherent) | 0.955 | > 2.56 | 0.768 | 3.96 | 0.874 | > 2000 |  |  |
| ABC-1 (lung adenocarcinoma, adherent) | 0.913 | > 2.56 | 0.933 | > 10.2 | 0.956 | > 2000 |  |  |
| ACHN (kidney, adherent) | 0.937 | > 2.56 | 0.922 | > 10.2 | 0.791 | 1040 |  |  |

| Cell Line | AUC (AKT inhibitor VIII; [1]) | IC50 (AKT inhibitor VIII; [1]) [µM] | AUC (AKT inhibitor VIII; [2]) | IC50 (AKT inhibitor VIII; [2]) [µM] | AUC (AICAR) | IC50 (AICAR) [µM] | AUC (GSK429286A) | IC50 (GSK429286A) [µM] |
| --- | --- | --- | --- | --- | --- | --- | --- | --- |
| BALL-1 (B-cell leukaemia, suspension) |  |  |  |  | 0.783 | 617 |  |  |
| BT-549 (breast, adherent) |  |  |  |  | 0.916 | > 2000 |  |  |
| CL-34 (large intestine, adherent) |  |  |  |  | 0.946 | > 2000 |  |  |
| CL-40 (large intestine, adherent) |  |  |  |  | 0.96 | > 2000 |  |  |
| CML-T1 (chronic myeloid leukaemia, suspension) |  |  |  |  | 0.685 | 372 |  |  |
| CRO-AP2 (B-cell lymphoma, suspension) |  |  |  |  | 0.666 | 337 |  |  |
| DIFI (large intestine, adherent) |  |  |  |  | 0.94 | > 2000 |  |  |
| EW-22 (Ewing sarcoma, adherent) |  |  |  |  | 0.946 | > 2000 |  |  |
| HCC-366 (non-small cell lung carcinoma, adherent) |  |  |  |  | 0.832 | 1350 |  |  |
| IGROV-1 (ovary, adherent) |  |  |  |  | 0.954 | > 2000 |  |  |
| JEKO-1 (B-cell lymphoma, suspension) |  |  |  |  | 0.571 | 194 |  |  |
| JHOS-4 (ovary, adherent) |  |  |  |  | 0.928 | > 2000 |  |  |
| Jurkat (T-cell leukaemia, suspension) |  |  |  |  | 0.989 | > 2000 |  |  |
| KARPAS-1106P (B-cell lymphoma, suspension) |  |  |  |  | 0.832 | 978 |  |  |
| KATOIII (stomach, semi-adherent) |  |  |  |  | 0.873 | 1650 |  |  |
| KNS-62 (lung squamous cell carcinoma, adherent) |  |  |  |  | 0.814 | 1770 |  |  |
| MEL-HO (melanoma, adherent) |  |  |  |  | 0.986 | > 2000 |  |  |
| MHH-CALL-2 (B-cell leukaemia, suspension) |  |  |  |  | 0.851 | 954 |  |  |
| MKN7 (stomach, adherent) |  |  |  |  | 0.885 | > 2000 |  |  |
| MM1S (myeloma, suspension) |  |  |  |  | 0.727 | 530 |  |  |
| MOLM-16 (acute myeloid leukaemia, suspension) |  |  |  |  | 0.86 | 1350 |  |  |
| MOLT-16 (T-cell lymphoblastic leukaemia, suspension) |  |  |  |  | 0.75 | 543 |  |  |

| Cell Line | AUC (AKT inhibitor VIII; [1]) | IC50 (AKT inhibitor VIII; [1]) [µM] | AUC (AKT inhibitor VIII; [2]) | IC50 (AKT inhibitor VIII; [2]) [µM] | AUC (AICAR) | IC50 (AICAR) [µM] | AUC (GSK429286A) | IC50 (GSK429286A) [µM] |
| --- | --- | --- | --- | --- | --- | --- | --- | --- |
| NCC010 (kidney, adherent) |  |  |  |  | 0.95 | > 2000 |  |  |
| NCI-H146 (small cell lung carcinoma, suspension) |  |  |  |  | 0.881 | 1370 |  |  |
| NCI-H508 (large intestine, semi-adherent) |  |  |  |  | 0.779 | 1510 |  |  |
| NCI-H835 (lung carcinoid, suspension) |  |  |  |  | 0.967 | > 2000 |  |  |
| NCI-H929 (myeloma, suspension) |  |  |  |  | 0.733 | 508 |  |  |
| NCI-H1105 (small cell lung carcinoma, suspension) |  |  |  |  | 0.98 | > 2000 |  |  |
| NCI-H1341 (small cell lung carcinoma, suspension) |  |  |  |  | 0.872 | 1440 |  |  |
| NCI-N87 (stomach, adherent) |  |  |  |  | 0.833 | > 2000 |  |  |
| OCI-LY7 (B-cell lymphoma, suspension) |  |  |  |  | 0.866 | 1000 |  |  |
| PWR-1E (prostate, adherent) |  |  |  |  | 0.936 | > 2000 |  |  |
| RCH-ACV (B-cell leukaemia, suspension) |  |  |  |  | 0.487 | 116 |  |  |
| RH-18 (rhabdomyosarcoma, adherent) |  |  |  |  | 0.9 | > 2000 |  |  |
| SK-GT-2 (stomach, adherent) |  |  |  |  | 0.752 | 696 |  |  |
| SK-MEL-31 (melanoma, adherent) |  |  |  |  | 0.963 | > 2000 |  |  |
| SUP-B8 (B-cell leukaemia, suspension) |  |  |  |  | 0.832 | 1270 |  |  |
| TC-YIK (cervix, suspension) |  |  |  |  | 0.708 | 440 |  |  |
| U-266 (myeloma, semi-adherent) |  |  |  |  | 0.9 | > 2000 |  |  |
| VA-ES-BJ (soft tissue, adherent, top dose 20 µM) |  |  |  |  |  |  | 0.985 | > 20 |
| VAL (B-cell lymphoma, suspension, top dose 20 µM) |  |  |  |  |  |  | 0.861 | 17 |
| VCaP (prostate, adherent, top dose 20 µM) |  |  |  |  |  |  | 0.981 | > 20 |
| VM-CUB-1 (bladder, adherent, top dose 20 µM) |  |  |  |  |  |  | 0.988 | > 20 |
| VMRC-LCD (lung adenocarcinoma, adherent) |  |  |  |  | 0.993 | > 2000 |  |  |

| Cell Line | AUC (AKT inhibitor VIII; [1]) | IC50 (AKT inhibitor VIII; [1]) [µM] | AUC (AKT inhibitor VIII; [2]) | IC50 (AKT inhibitor VIII; [2]) [µM] | AUC (AICAR) | IC50 (AICAR) [µM] | AUC (GSK429286A) | IC50 (GSK429286A) [µM] |
| --- | --- | --- | --- | --- | --- | --- | --- | --- |
| VMRC-MELG (melanoma, adherent, top dose 20 µM) |  |  |  |  |  |  | 0.983 | > 20 |
| VMRC-RCW (kidney, adherent, top dose 20 µM) |  |  |  |  |  |  | 0.987 | > 20 |
| VMRC-RCZ (kidney, adherent, top dose 20 µM) |  |  |  |  |  |  | 0.711 | 5.5 |
| WIL2-NS (lymphoid neoplasm, suspension, top dose 20 µM) |  |  |  |  |  |  | 0.921 | > 20 |
| WM35 (melanoma, adherent, top dose 20 µM) |  |  |  |  |  |  | 0.981 | > 20 |
| WM278 (melanoma, adherent, top dose 20 µM) |  |  |  |  |  |  | 0.968 | > 20 |
| WM793B (melanoma, adherent, top dose 20 µM) |  |  |  |  |  |  | 0.924 | > 20 |
| WM1552C (melanoma, adherent, top dose 20 µM) |  |  |  |  |  |  | 0.948 | > 20 |
| WM-115 (melanoma, adherent, top dose 20 µM) |  |  |  |  |  |  | 0.972 | > 20 |
| WSU-DLCL2 (B-cell lymphoma, suspension, top dose 20 µM) |  |  |  |  |  |  | 0.935 | > 20 |
| WSU-NHL (lymphoid neoplasm, suspension, top dose 20 µM) |  |  |  |  |  |  | 0.952 | > 20 |
| YAPC (pancreas, adherent, top dose 20 µM) |  |  |  |  |  |  | 0.975 | > 20 |
| YH-13 (glioma, adherent, top dose 20 µM) |  |  |  |  |  |  | 0.856 | 17.6 |
| YKG-1 (glioma, adherent, top dose 20 µM) |  |  |  |  |  |  | 0.959 | > 20 |
| YMB-1-E (breast, adherent, top dose 20 µM) |  |  |  |  |  |  | 0.98 | > 20 |
| YT (lymphoid neoplasm, suspension, top dose 20 µM) |  |  |  |  |  |  | 0.896 | 18 |
| ZR-75-30 (breast, adherent) |  |  |  |  | 0.904 | > 2000 |  |  |
| huH-1 (liver, adherent, top dose 20 µM) |  |  |  |  |  |  | 0.984 | > 20 |
| no-10 (glioma, adherent, top dose 20 µM) |  |  |  |  |  |  | 0.924 | > 20 |
| no-11 (glioma, adherent, top dose 20 µM) |  |  |  |  |  |  | 0.944 | > 20 |

IC50 is the fitted dose that halves viability relative to control wells, and lower means more sensitive; fits outside the tested doses are given as limits. AUC sums up the same curve from the lowest dose to the 256-fold higher top dose; it is 1 without any effect and falls as sensitivity rises. Any top dose called inferred was derived from the fitted curves, not read from the paper. For some of these results: Where an entry number is given, a second screen of the drug exists; the two often differ.
